Laboratory results as given in the RNAGym collection of RNA variant scans (doi:10.7554/elife.90254).
Read counts are not given, so values of variants with three or more changes are uncertain.

B1: LINE1-mini (parent)
chain: GGCAGAGCUCAACACAGCGUGGCAAAGUGGCUGUGGCUAGACUGCC

Variants of: B1
Test: self-cleavage, relative activity (ratio to wild type); higher = more cleavage; in vitro, sequencing; the parent is a self-cleaving ribozyme

Variant	self-cleavage
A16G C37A A41C	0.02
A16G C23A A25U G30C G35C G36A	0.03
C15U G36U G44A	0.11
A16C C23A G35C G40U	0.04
A16C G21A C23G C42U	0.05
C15U G36U U38G	0
A16G C18A U32G G44A	0.01
A16C G17C C31G G40U	0.03
A16C C18A G21C	0.06
A16C C18A G21U	0.08
A16G U28G U34C C37U U43A	0.02
A16G G19U G40A	0.05
C15U G21C A41G	0.24
A16G U20A G40U	0.04
A16C A24G G36C	0.01
A16C A26C C37A	0.04
A16C G19U G36A	0.12
A16C U20A G36U	0.01
A16G A26C G30A C31A	0.09
A16C A24G A39G	0.14
A16C G21A G35A A41G C42G	0.04
A16C G30A C46U	0.01
A16G G17A C18G G27A G35U	0
A16C G22A U32A	0.13

Variant	self-cleavage
A16G G19C G29A C37G A39C	0.04
A16G C23U G27U G29U U43C	0.04
A16C G22A U32A G33U	0.02
C15U U20A A26G	0.56
A16C G35C A39C	0.06
C15U U32A G40C	0.02
A16C U20C A25G U34C G40U	0.01
A16C G27A G35U U38G G40U	0.01
A16C G27A G33C	0
A16G G19A G40A C45A	0.03
C15U G22U U43A	0.1
C15U U32A G33C	0.03
A16G G27C G29U G36A	0.1
C15U G40U C46A	0.06
C15U G21C G35U A41C	0.01
A16G G21U G40U	0.09
C15U G30C C37G C46A	0
A16C C18U G33U G36C C42A	0
C15U U28A G30A	0.21
A16C U34G U38G	0.04
A16C C18A C42G	0.01
C15U G29C C37G U43G	0.02
A16G C18U U32G	0.03
A16G A39U G40A C42G	0.02

Variant	self-cleavage
A16C G17A G36A	0.05
A16C C18U C37G C45A	0.02
A16G G40A C45A	0.21
C15U U20A C31G	0.01
A16C G27U G30A G40C	0.04
A16C A26C G35U G40C	0
A16C G27C G44A	0.1
A16C A39C C45A	0.01
A16C G21C G27C C46U	0.05
A16G G17C A41G	0.04
A16C G30C C37U	0.06
A16C A24C G30C	0.01
A16G G21A C46U	0.43
A16C C23U C42A	0.05
A16C C23U C42U	0.06
A16C C37G A39U A41C	0
A16G C31U G33U	0
C15U G36U U43A	0.19
A16C C18G G36U	0.15
A16C C23U G33C	0.04
A16G G19U C23G G27U	0.09
A16G U34A C37U G44C C46U	0
A16G U32A A41U	0.03
C15U G21C C46A	0.48

Variant	self-cleavage
A16G U32A A39U	0.01
A16C C37G U38A C45U	0.03
C15U G30A G36U U38A	0.17
A16C C23A G35C	0.05
A16C G22C G33C	0.14
A16G C18A U20G	0.06
A16G U28C A39G	0.03
C15U G21U C23A	0.19
A16C U34A C37U C46G	0.07
A16C A24U C37U	0.07
C15U U32G C46G	0.03
C15U U28A G29A G30C G36C	0.04
A16G U20C C37A	0.02
C15U G27A G33A	2.03
A16C G19A G27A C31A U43A	0.07
A16G G27C C31G	0.01
A16G G21A A25C C45U C46A	0.02
A16C G19A G30U G44A	0.01
A16C U20C U28A G44U	0.05
C15U G33A G44C	0.53
A16C G36A A39U	0.08
A16C C18U G21U A39C	0.04
A16C C23G C37G G44A	0
A16G G17C C37U U38G C45U	0

Variant	self-cleavage
A16G U20G U28C G36U	0
A16C G30A U32C	0.05
A16C A24U G40A U43C	0.03
A16C A39G G40C U43A	0.04
A16G G30A A39U	0.28
A16G A24C C45G	0.02
A16G G30A C45A	0.3
C15U G21C G30C A41C	0.03
A16C G17U G27U	0.19
A16C C18U G33C U38G A39U C46U	0.02
A16C C37G U38A	0.05
A16C C23U G33A G36A	0.04
C15U U32G G35A G36C G40C	0.1
C15U U20C U38G	0.01
A16C A24G C42A C46A	0.01
A16G G29U U43C	0
A16C A25U G29U	0.41
A16G G27U G36U	0.11
C15U U43G G44C	0.12
A16G G21U A24U A25U C42A	0.02
A16G G27C C37G C46G	0.02
A16G U20C C42A	0.04
A16G G35C A41U	0.01
A16C G22A A25U G30C G33A	0.05

Variant	self-cleavage
A16C U32G G36C	0.03
A16C G35U A41C	0.02
A16C U34G C37U	0.25
A16C C31G C46U	0.02
A16G C18A G40C	0.02
A16G G27U U32G	0.02
C15U U32G G33U	0.05
C15U G35U C42A	0.05
A16C G21U C37A A39U	0.05
C15U G22C C45A	0.08
A16G G19C A41U	0.3
A16C G22A C42G	0.01
A16C G19C U20G A25C G35A	0.07
C15U G27C C45G	0.11
A16G C37A C45G	0.21
A16C U34G G35C G40A	0.04
A16G A24U G33U	0
A16C G22C A24G U28A G36C C37U C42U C45U C46U	0.04
C15U U20C C31U	0.12
C15U G22C U38A A39C	0.1
A16G G22A U32C A39U C46U	0.24
A16C G21U A26G G44A	0
A16G G19U G21U G35U	0.01
A16C C18U C42A	0.02

Variant	self-cleavage
A16G A25G G29C G33U	0.03
C15U G21U G36A	0.12
A16C U20G G22U C46U	0.07
A16G G19U U43G	0.21
A16C G19A G22C U38C	0.02
A16C G22U A24C C42U C46A	0.01
A16G C18G G19U A24C G27C	0.01
C15U G22A G33C	0.11
A16C G19U U28A U34G	0.03
A16G A25C C46A	0.08
C15U U20G C46G	0.24
A16C A26C G36U G44A	0.03
C15U U28G U32C	0.12
A16G C37A A39C	0.19
A16G G17C G27A G30C C42G	0.05
A16C G29U C42U	0.04
A16C C31G G33U	0.01
A16C A26C G30U	0.1
C15U G33A G35C C37U U38C	0.02
A16C C23A G29U C31U	0.02
A16G A24G C37A	0.05
A16G G35U C45A	0.04
A16C U38A G40C	0.01
